This is an account of results in publication PMC7645679.

Experiment [1] addresses T1, human CTCF, GFP fusion (F3H) (human) (UniProt P49711).
T1 sequence: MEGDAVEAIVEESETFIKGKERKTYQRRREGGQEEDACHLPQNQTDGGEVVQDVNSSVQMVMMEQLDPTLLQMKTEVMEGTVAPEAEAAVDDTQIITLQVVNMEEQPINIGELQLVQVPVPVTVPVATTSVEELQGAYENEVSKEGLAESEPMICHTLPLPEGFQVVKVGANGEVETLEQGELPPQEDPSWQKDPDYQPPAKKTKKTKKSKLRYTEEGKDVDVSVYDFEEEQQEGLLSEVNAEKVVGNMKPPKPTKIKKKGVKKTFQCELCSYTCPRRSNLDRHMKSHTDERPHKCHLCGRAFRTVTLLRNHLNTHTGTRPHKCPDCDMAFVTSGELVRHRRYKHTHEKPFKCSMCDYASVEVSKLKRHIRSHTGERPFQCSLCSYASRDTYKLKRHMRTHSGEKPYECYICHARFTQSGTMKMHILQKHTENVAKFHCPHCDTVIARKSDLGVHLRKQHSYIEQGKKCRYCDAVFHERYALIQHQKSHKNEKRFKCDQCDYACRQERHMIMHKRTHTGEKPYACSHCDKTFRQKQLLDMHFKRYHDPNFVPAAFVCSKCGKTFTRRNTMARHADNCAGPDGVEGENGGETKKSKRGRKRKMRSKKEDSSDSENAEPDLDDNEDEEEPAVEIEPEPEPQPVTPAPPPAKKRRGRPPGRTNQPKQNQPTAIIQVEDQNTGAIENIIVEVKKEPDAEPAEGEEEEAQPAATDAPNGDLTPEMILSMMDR
Put plainly: fluorescent three-hybrid (F3H); GFP-tagged bait tethered to a LacO array by GFP nanobody–LacR in BHK-LacO cells; recruitment of mKate2-tagged prey read as Pearson correlation of green and red channels at the array; cells fixed 24 h after transfection.

Experiment [2] deals with T2, SA1 (cohesin subunit), endogenous in mESCs (mouse (endogenous in mESCs)) (UniProt Q9D3E6).
T2 sequence: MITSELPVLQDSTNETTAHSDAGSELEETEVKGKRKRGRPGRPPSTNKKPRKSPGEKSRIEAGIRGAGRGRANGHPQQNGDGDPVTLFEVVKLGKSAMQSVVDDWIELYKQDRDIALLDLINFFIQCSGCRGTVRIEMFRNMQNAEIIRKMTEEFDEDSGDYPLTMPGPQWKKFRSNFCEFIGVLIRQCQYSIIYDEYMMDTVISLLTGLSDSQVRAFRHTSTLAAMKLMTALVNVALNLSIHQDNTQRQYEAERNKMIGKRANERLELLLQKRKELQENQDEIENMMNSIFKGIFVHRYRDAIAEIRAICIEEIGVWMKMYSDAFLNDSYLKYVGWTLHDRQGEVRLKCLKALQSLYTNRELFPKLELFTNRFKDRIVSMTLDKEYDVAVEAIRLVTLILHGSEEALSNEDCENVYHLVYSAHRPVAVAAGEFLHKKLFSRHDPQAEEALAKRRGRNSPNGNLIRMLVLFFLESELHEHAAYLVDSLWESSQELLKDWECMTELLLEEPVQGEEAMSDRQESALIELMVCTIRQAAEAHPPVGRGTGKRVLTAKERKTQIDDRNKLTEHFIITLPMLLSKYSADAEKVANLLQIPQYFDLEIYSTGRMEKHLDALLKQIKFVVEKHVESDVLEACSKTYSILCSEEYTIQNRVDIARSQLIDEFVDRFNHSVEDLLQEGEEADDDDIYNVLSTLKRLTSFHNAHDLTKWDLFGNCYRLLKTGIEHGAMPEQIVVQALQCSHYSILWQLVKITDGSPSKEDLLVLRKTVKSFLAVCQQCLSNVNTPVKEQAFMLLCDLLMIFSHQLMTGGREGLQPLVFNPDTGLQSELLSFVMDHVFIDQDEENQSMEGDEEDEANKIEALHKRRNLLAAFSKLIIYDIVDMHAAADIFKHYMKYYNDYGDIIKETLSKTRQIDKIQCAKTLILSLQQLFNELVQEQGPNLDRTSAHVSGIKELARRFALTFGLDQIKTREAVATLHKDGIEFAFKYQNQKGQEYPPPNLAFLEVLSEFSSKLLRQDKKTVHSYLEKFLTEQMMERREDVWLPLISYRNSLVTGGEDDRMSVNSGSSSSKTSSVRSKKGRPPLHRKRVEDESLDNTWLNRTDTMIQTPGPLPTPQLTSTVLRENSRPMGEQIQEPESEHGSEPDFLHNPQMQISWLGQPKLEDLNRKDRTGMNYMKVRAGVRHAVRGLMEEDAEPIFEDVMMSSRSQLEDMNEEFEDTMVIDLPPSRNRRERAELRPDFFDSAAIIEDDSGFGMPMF
The experiment can be described thus: co-IP; mESC nuclear extracts (benzonase, diluted to 200 mM NaCl), 500 μg, immunoprecipitated with anti-SA1 (Abcam ab4457) on Protein G beads; blots with anti-FLAG, anti-SA1, anti-RAD21, anti-SA2.

For experiment [3], the target named is T3, SA2 (cohesin subunit), endogenous in mESCs (mouse (endogenous in mESCs)) (UniProt O35638).
T3 sequence: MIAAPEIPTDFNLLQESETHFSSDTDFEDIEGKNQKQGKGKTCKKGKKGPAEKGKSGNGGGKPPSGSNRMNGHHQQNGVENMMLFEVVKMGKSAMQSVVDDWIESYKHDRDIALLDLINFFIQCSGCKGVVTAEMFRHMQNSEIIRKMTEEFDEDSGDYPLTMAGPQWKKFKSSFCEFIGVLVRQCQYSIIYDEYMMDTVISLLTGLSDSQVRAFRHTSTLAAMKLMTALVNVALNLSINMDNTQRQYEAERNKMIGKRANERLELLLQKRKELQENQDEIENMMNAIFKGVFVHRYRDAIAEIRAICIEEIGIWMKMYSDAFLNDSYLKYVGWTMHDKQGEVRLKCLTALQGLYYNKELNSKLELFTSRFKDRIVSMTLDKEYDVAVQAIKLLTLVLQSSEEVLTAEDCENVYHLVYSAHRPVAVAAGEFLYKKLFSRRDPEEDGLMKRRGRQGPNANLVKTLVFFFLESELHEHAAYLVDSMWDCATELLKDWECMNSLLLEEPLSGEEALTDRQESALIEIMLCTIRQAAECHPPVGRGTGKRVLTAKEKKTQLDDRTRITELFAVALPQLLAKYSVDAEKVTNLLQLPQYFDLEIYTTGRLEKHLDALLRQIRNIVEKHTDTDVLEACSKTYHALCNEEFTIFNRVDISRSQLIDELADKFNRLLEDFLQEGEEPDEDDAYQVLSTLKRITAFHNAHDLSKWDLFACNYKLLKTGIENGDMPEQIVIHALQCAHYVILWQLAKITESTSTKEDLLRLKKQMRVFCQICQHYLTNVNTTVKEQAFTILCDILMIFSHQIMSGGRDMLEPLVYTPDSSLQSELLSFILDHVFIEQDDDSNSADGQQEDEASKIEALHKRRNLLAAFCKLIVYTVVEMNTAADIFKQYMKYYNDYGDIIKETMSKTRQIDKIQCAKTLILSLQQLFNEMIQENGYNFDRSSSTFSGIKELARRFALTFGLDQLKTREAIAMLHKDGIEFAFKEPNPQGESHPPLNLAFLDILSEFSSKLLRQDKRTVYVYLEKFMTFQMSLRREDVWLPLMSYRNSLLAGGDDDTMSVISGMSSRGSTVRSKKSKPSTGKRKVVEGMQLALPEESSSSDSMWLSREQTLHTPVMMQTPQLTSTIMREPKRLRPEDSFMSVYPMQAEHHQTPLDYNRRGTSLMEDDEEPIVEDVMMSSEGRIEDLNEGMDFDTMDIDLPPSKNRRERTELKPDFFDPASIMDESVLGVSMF
Described as above.

Results are given in words; binding and its absence hold for the method and conditions named. For part of these data: Binding seen in cells or lysates may run through a third protein. Some binding calls cover weakened binding; strength is not graded here. Where a sequence is shown, tags or fusion partners need not be part of it.

B1: human PDS5A, mKate2 fusion (protein, UniProt Q29RF7 1-1337)
chain: MDFTAQPKPATALCGVVSADGKIAYPPGVKEITDKITTDEMIKRLKMVVKTFMDMDQDSEDEKQQYLPLALHLASEFFLRNPNKDVRLLVACCLADIFRIYAPEAPYTSHDKLKDIFLFITRQLKGLEDTKSPQFNRYFYLLENLAWVKSYNICFELEDCNEIFIQLFRTLFSVINNSHNKKVQMHMLDLMSSIIMEGDGVTQELLDSILINLIPAHKNLNKQSFDLAKVLLKRTVQTIEACIANFFNQVLVLGRSSVSDLSEHVFDLIQELFAIDPHLLLSVMPQLEFKLKSNDGEERLAVVRLLAKLFGSKDSDLATQNRPLWQCFLGRFNDIHVPVRLESVKFASHCLMNHPDLAKDLTEYLKVRSHDPEEAIRHDVIVTIITAAKRDLALVNDQLLGFVRERTLDKRWRVRKEAMMGLAQLYKKYCLHGEAGKEAAEKVSWIKDKLLHIYYQNSIDDKLLVEKIFAQYLVPHNLETEERMKCLYYLYASLDPNAVKALNEMWKCQNMLRSHVRELLDLHKQPTSEANCSAMFGKLMTIAKNLPDPGKAQDFVKKFNQVLGDDEKLRSQLELLISPTCSCKQADICVREIARKLANPKQPTNPFLEMVKFLLERIAPVHIDSEAISALVKLMNKSIEGTADDEEEGVSPDTAIRSGLELLKVLSFTHPTSFHSAETYESLLQCLRMEDDKVAEAAIQIFRNTGHKIETDLPQIRSTLIPILHQKAKRGTPHQAKQAVHCIHAIFTNKEVQLAQIFEPLSRSLNADVPEQLITPLVSLGHISMLAPDQFASPMKSVVANFIVKDLLMNDRSTGEKNGKLWSPDEEVSPEVLAKVQAIKLLVRWLLGMKNNQSKSANSTLRLLSAMLVSEGDLTEQKRISKSDMSRLRLAAGSAIMKLAQEPCYHEIITPEQFQLCALVINDECYQVRQIFAQKLHKALVKLLLPLEYMAIFALCAKDPVKERRAHARQCLLKNISIRREYIKQNPMATEKLLSLLPEYVVPYMIHLLAHDPDFTRSQDVDQLRDIKECLWFMLEVLMTKNENNSHAFMKKMAENIKLTRDAQSPDESKTNEKLYTVCDVALCVINSKSALCNADSPKDPVLPMKFFTQPEKDFCNDKSYISEETRVLLLTGKPKPAGVLGAVNKPLSATGRKPYVRSTGTETGSNINVNSELNPSTGNRSREQSSEAAETGVSENEENPVRIISVTPVKNIDPVKNKEINSDQATQGNISSDRGKKRTVTAAGAENIQQKTDEKVDESGPPAPSKPRRGRRPKSESQGNATKNDDLNKPINKGRKRAAVGQESPGGLEAGNAKAPKLQDLAKKAAPAERQIDLQR
As to B1, the binding result in experiment [1] is given as “binds”.

B2: CTCF ΔC(577–614) transgene (FLAG, mRuby2) in mESCs (protein, UniProt Q61164)
chain: MEGEAVEAIVEESETFIKGKERKTYQRRREGGQEEDACHLPQNQTDGGEVVQDVNSSVQMVMMEQLDPTLLQMKTEVMEGTVAPEAEAAVDDTQIITLQVVNMEEQPINIGELQLVQVPVPVTVPVATTSVEELQGAYENEVSKEGLAESEPMICHTLPLPEGFQVVKVGANGEVETLEQGELPPQEDSSWQKDPDYQPPAKKTKKTKKSKLRYTEEGKDVDVSVYDFEEEQQEGLLSEVNAEKVVGNMKPPKPTKIKKKGVKKTFQCELCSYTCPRRSNLDRHMKSHTDERPHKCHLCGRAFRTVTLLRNHLNTHTGTRPHKCPDCDMAFVTSGELVRHRRYKHTHEKPFKCSMCDYASVEVSKLKRHIRSHTGERPFQCSLCSYASRDTYKLKRHMRTHSGEKPYECYICHARFTQSGTMKMHILQKHTENVAKFHCPHCDTVIARKSDLGVHLRKQHSYIEQGKKCRYCDAVFHERYALIQHQKSHKNEKRFKCDQCDYACRQERHMIMHKRTHTGEKPYACSHCDKTFRQKQLLDMHFKRYHDPNFVPAAFVCSKCGKTFTRRNTMARHADNNAEPDLDDNEEEEEPAVEIEPEPEPQPQPPPPPQPVAPAPPPAKKRRGRPPGRTNQPKQNQPTAIIQVEDQNTGAIENIIVEVKKEPDAEPAEGEEEEAQAATTDAPNGDLTPEMILSMMDR
B2: the binding entry in experiment [2] and in experiment [3] was “binds” in each case.
